# PubChem BioAssay AID493208 (National Center for Advancing Translational Sciences (NCATS), 2011)
# Screen size: about 44,000 compounds; about 340 (0.77%) were called active. Roughly 5% stayed inconclusive and do not appear here. The call rests on the fitted dose curve; in most records, active means well fitted inhibition curve with a large enough effect; inconclusive means small, poorly fitted or top-dose-only effect; inactive means flat fitted curve, though single readings scatter. Some of the results follow.
# Assay: Acumen qHTS Assay for Inhibitors of the mTORC1 Signaling Pathway in MEF (Tsc2-/-, p53-/-) Cells: Sytravon;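 further: plate controls were DMSO for no effect and rapamycin for full effect; nearly all actives have a fitted effect of over 50% in size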
# Settings: phospho-rpS6 immunofluorescence/PI, 24 h; series mostly up to 38.3 µM; activity change, negative = inhibition: at the top concentration
# Procedure, shortened: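 Cell-based qHTS: Tsc2-/- p53-/- MEF, 24 h cpd, 37 °C; fix/perm, anti-phospho-S6 Alexa-488 + PI; Acumen 488 nm scan; pS6/PI ratio, % positive cells; rapamycin 7.5 nM = inhibition ref; PI count = viability.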
row,SMILES,"activity change, negative = inhibition"
1,Oc1c(C(c2ccccc2)N2CCN(Cc3ccccc3)CC2)sc2nc(-c3ccco3)nn12 (stereo not drawn),inactive: -6.93%
2,Cc1ccc(CNC(=O)C2CCN(S(=O)(=O)N3CCC(C)CC3)CC2)cc1,inactive: 12.9%
3,CC(=O)Nc1nnc(SCc2cc(=O)c3cc(C)ccc3[nH]2)s1,inactive: -18.7%
4,CC1=C(C(=O)Nc2ccccc2)C(c2ccccc2)n2nc(-c3ccco3)nc2N1 (stereo not drawn),inactive: 5.67%
5,COc1ccc(NC(=O)Cn2c(SCc3cccc(Cl)c3)nc3ccncc32)c(OC)c1OC,inactive: 3.8%
6,Cc1ccc(NCc2cccn2-c2nnc(N3CCCCCC3)s2)cc1,inactive: -3.91%
7,CCOc1ccccc1NC(=O)C(C)Sc1cc(-c2ccccc2)nc(C)n1 (stereo not drawn),inactive: -9.22%
8,CCOc1ccccc1NC(=O)CCn1c(-c2ccc(OC)cc2)cc(C(C)=O)c1C,inactive: -0.118%
9,CCCCNC(=O)C1CCN(S(=O)(=O)c2cc(Br)cc3c2N(C(=O)CC)CC3)CC1,inactive: 1.78%
10,Cn1c(=O)cc(SCC(=O)NCc2ccc(F)cc2)c2ccc(Cl)cc21,inactive: -15.5%
11,COC(=O)c1cc(-c2ccc(C)cc2)c2c(=O)n(C)c(=O)n(C)c2n1,inactive: 1.3%
12,OCCN(CCO)c1ncnc2c1cnn2-c1ccc(F)cc1,inactive: -20.5%
13,COc1ccccc1C(=O)Oc1ccc(C(c2c(C)[nH][nH]c2=O)c2c(C)[nH][nH]c2=O)cc1,inactive: -1.77%
14,COc1cccc(CNC(=O)c2cc(S(=O)(=O)N3CCCCC3)c[nH]2)c1,inactive: -1.65%
15,COc1ccc(CC(=O)Nc2ccc(-c3nc4ccccc4s3)c(C)c2)cc1OC,inactive: -1.17%
16,COc1ccc2oc(=O)c(C(=O)N3CCN(c4ccc(C)cc4)CC3)cc2c1,inactive: 3.8%
17,COc1ccc(-c2cc(C(F)(F)F)nc(NCCc3ccccc3)n2)cc1OC,inactive: 3.18%
18,Cc1csc2nc(COC(=O)c3ccccc3NC(=O)c3ccc(C(C)(C)C)cc3)cc(=O)n12,inactive: 5.25%
19,O=C(CCCn1c(=O)c2cccn2c2ccccc21)NCCc1ccc(Cl)cc1,inactive: 8.45%
20,CSc1nn(Cc2ccc(C)cc2)c(N)c1S(=O)(=O)c1ccccc1,inactive: -19.9%
21,COc1ccc(-c2cc(C(=O)Nc3c(C)n(C)n(-c4ccccc4)c3=O)no2)cc1OC,inactive: 3.91%
22,Cc1c(CC(=O)NCc2ccc(F)cc2)c(=O)oc2cc(O)c(Cl)cc12,inactive: -5.09%
23,COc1ccc(NC(=O)CC2NCCNC2=O)c(OC)c1 (stereo not drawn),inactive: -0.155%
24,CCOc1cccc2sc(N(Cc3cccnc3)C(=O)c3ccc(C#N)cc3)nc12,inactive: -9.71%
25,CCOC(=O)c1c(NC(=O)C2c3ccccc3Oc3ccccc32)sc(C)c1C,inactive: -13.5%

row,SMILES,"activity change, negative = inhibition"
1,Cc1cc(C)n(-c2nc3ccccc3nc2N2CCN(c3cccc(C(F)(F)F)c3)CC2)n1,inactive: -22.8%
2,O=C(NCc1ccccc1Cl)c1ccc2oc(=O)n(Cc3ccccc3)c2c1,inactive: 12.4%
3,Cc1cccc(-n2nc(C)c(C(=O)Nc3cc(C)ccc3C)c2-n2cccc2)c1,inactive: 0.319%
4,Cc1ccc(-n2c(SCc3ccccc3)nc3c([nH]c4ccccc43)c2=O)cc1,inactive: 0.0818%
5,COc1ccc(CNC(=O)c2ccc3nc(-c4ccc(F)cc4)c(-c4ccc(F)cc4)nc3c2)cc1,inactive: 3.8%
6,Cc1nnc(NC(=O)c2ccccc2)s1,inactive: -0.123%
7,CCC1(C)Cc2c(sc3nc(SC)n(-c4ccc(C)cc4)c(=O)c23)CO1 (stereo not drawn),inactive: 1.31%
8,O=C(Nc1ccc(-c2nc3cc(Cl)ccc3o2)cc1)c1cc2ccccc2o1,inactive: -2.61%
9,Cc1cc(NC(=O)CCNS(=O)(=O)c2cccc3nsnc23)ccc1Br,inactive: 0%
10,Cc1ccc(NC(=O)c2ccccc2Br)c(C(=O)c2ccccc2)c1,inactive: 0.461%
11,CC1CCN(c2nc3ccc(C(=O)NCc4ccccc4)cc3s2)CC1,inactive: -1.63%
12,COc1ccc(Cn2c(SCc3ccc(C(=O)NC(C)c4ccccc4)cc3)nc3cccnc32)cc1 (stereo not drawn),inactive: -3.55%
13,COc1cc(NC(=O)CCCOc2cc(=O)n(C)c3ccccc23)cc(OC)c1OC,inactive: 2.58%
14,CCOC(=O)CNC(=O)N1CCN(c2nnc(C)c3c(C)n(-c4ccc(Cl)cc4)nc23)CC1,inactive: 3.59%
15,COc1ccc(OC)c(NC(=O)Cn2c(=O)cc(-c3ccccc3)c3c(C)nn(C)c32)c1,inactive: -5.02%
16,Cc1cccc(N2CCN(C(=O)CS(=O)(=O)Cc3nc(-c4ccccc4C)oc3C)CC2C)c1 (stereo not drawn),inactive: -20.7%
17,Cc1cccc(OCC(=O)Nc2nnc(S(=O)(=O)N3CCc4ccccc43)s2)c1,inactive: 6.51%
18,O=C(Nc1ccc(Cl)cc1)C(NS(=O)(=O)c1cccs1)c1ccccc1 (stereo not drawn),inactive: -16.1%
19,Cc1nc(-c2ccc(C)c(N3CCN(C(=O)Nc4cccc(Cl)c4C)CC3)c2)no1,inactive: -11.6%
20,CCOC(=O)C1CCCN(Cc2cn3c(-c4cccc(Br)c4)nnc3s2)C1 (stereo not drawn),inactive: -26.1%
21,Cc1ccc(-n2c(Cc3ccccc3)nnc2SCc2nc(-c3cccs3)no2)cc1C,inactive: 2.19%
22,CCC(C(=O)Nc1cc(F)ccc1F)n1nc(C)c2c(C)n(-c3ccc(C)cc3)nc2c1=O (stereo not drawn),inactive: -2.82%
23,CCN(C(=O)c1cn(CC)c(=O)c2cc(OC)c(OC)cc12)c1ccccc1F,inactive: 1.83%
24,Cc1cccc(NC(=O)C(=O)NCCc2csc(-c3ccc(F)cc3)n2)c1C,inactive: -1.18%
25,CCc1ccccc1NC(=O)c1noc2c1CC(C(C)(C)C)CC2 (stereo not drawn),inactive: -24.9%

row,SMILES,"activity change, negative = inhibition"
1,COc1ccc(CCC(=O)NC2CC(=O)N(c3ccc(OC)cc3)C2)cc1 (stereo not drawn),inactive: -7.62%
2,Cc1cc(C)c2c(=O)cc(CSc3n[nH]c(C)n3)[nH]c2c1,inactive: -15.6%
3,Cc1cc(N2CCCCC2)nc2ccc(NC(=O)CCC(=O)N3CCN(c4ccccc4)CC3)cc12,inactive: -28%
4,COc1cc(C(=O)Nc2ccccc2-c2nc(-c3ccc(C)cc3)no2)cc(OC)c1OC,inactive: 0%
5,COc1ccc(NC(=O)CN2C(=O)c3cccnc3Sc3ccccc32)cc1OC,inactive: -0.23%
6,CC1=C(C(=O)Nc2cc(Cl)ccc2C)C(c2cccs2)n2ncnc2N1 (stereo not drawn),inactive: -3.64%
7,Cc1cccc(N2CCN(C(=O)c3ccc(Nc4nc5ccccc5n5nnnc45)cc3)CC2)c1C,inactive: -0.938%
8,COc1cc(C2C(=O)N(C3CCCCC3)CC(=O)N2C2CCCCC2)ccc1OC(C)C (stereo not drawn),inactive: 4.98%
9,CCSc1nc(-c2ccccc2F)nc2c1Cc1c(CO)cnc(C)c1O2,inactive: -11.9%
10,CC1CCN(c2nc3ccc(C(=O)N4CCN(c5ccccc5)CC4)cc3s2)CC1,inactive: -8.53%
11,COc1cccc(N2CCN(C(=O)c3nn(C)c4c3CSc3ccc(C)cc3-4)CC2)c1,inactive: 2.54%
12,CCC(=O)N1CCc2cc(CNC(=O)c3ccc(F)cc3)ccc21,inactive: -2.08%
13,Cc1ccc(-c2nc3sccn3c2Nc2ccc(C)c(C)c2)cc1,inactive: -8.87%
14,O=C(NCc1ccccc1F)c1ccc(CSc2nc3cccnc3n2Cc2ccccc2)cc1,inactive: -8.32%
15,Cc1nn2c(=O)cc(COC(=O)c3ccccc3NC(=O)COc3ccccc3C)nc2s1,inactive: 10.8%
16,COc1ccc(OC)c(NC(=O)[C@H](CSCc2ccccc2)N2Cc3ccccc3C2=O)c1,inactive: -6.01%
17,CCOC(=O)c1cc(OC(=O)c2ccccc2Cl)n(-c2ccccc2)n1,inactive: -1.03%
18,COC(=O)c1cc2sc(Cl)cc2n1CC(=O)Nc1cc(C)cc(C)c1,inactive: -1.21%
19,COc1ccc(OC)c(CNc2nc3ccc(C)cc3n3nnnc23)c1,inactive: -6.89%
20,COC(=O)c1cc2occc2n1CC(=O)Nc1ccc(N(C)C)cc1,inactive: -6.57%
21,Cc1ccc(CNC(=O)Cn2c(=O)n(-c3ccc(C)cc3)c(=O)c3c2c2cc(C)ccc2n3C)cc1,inactive: -0.185%
22,COC(=O)c1c(N)n(-c2ccc(OC)c(OC)c2)c2nc3ccccc3nc12,inactive: -12.8%
23,Cc1ccc(CNC(=O)C(=O)NCC(c2ccco2)S(=O)(=O)c2ccccc2)cc1 (stereo not drawn),inactive: 1.18%
24,N#Cc1nc(-c2ccc(COc3ccccc3)o2)oc1N1CCCCC1,inactive: -14.9%
25,Cc1ccccc1NC(=O)Cn1c(=O)n(Cc2ccccc2)c(=O)c2c(C)c(C)sc21,inactive: 5.31%

row,SMILES,"activity change, negative = inhibition"
1,Cn1c(=O)cc(SCC(=O)N2CCN(c3ccccc3F)CC2)c2ccccc21,inactive: -15.8%
2,CCC(Sc1nnc2c3ccccc3n(CC)c2n1)C(=O)Nc1nnc(C(C)C)s1 (stereo not drawn),inactive: 2.23%
3,COc1ccc(-c2cc3nc(C4CCN(C(=O)OC(C)(C)C)CC4)c(C(=O)Nc4cc(C)cc(C)c4)cn3n2)cc1,inactive: -7.54%
4,CCCN1CCN(CCCNC(=O)c2ccc3nc(Cc4ccccc4)oc3c2)CC1,inactive: 0.419%
5,CCOc1ccc(NC(=O)CC2C(=O)N(c3cccc(C)c3)C(=O)N2Cc2cccs2)cc1 (stereo not drawn),inactive: -0.0811%
6,CCOc1ccc(CN(CCc2ccc3c(c2)OCO3)Cc2cc(OC)c(OC)cc2OC)cc1,inactive: -16.8%
7,CCCCN1CC(c2nc3ccccc3n2CCCCOc2cccc(C)c2C)CC1=O (stereo not drawn),inactive: 0.108%
8,COc1cc(NC(=O)CCc2c(C)nn(-c3ccc(N4CCCCC4)nn3)c2C)cc(OC)c1OC,inactive: 0.0271%
9,COc1ccc(C)cc1NC(=O)c1cc(S(=O)(=O)N2CCCCC2)c[nH]1,inactive: -8.61%
10,Cc1cc(-n2c(C)nc3ccccc3c2=O)ccc1NC(=O)c1ccccc1[N+](=O)[O-],inactive: 0.811%
11,Cc1cc(C)cc(NC(=O)CCCc2nc(-c3ccco3)no2)c1,inactive: -5.44%
12,CCCc1cc(=O)[nH]c(Nc2cc(C)ccc2OC)n1,inactive: -6.18%
13,CC(Sc1nnc2ccc3ccccc3n12)C(=O)Nc1ccc(Cl)cc1 (stereo not drawn),inactive: 0.205%
14,COc1cccc(CCNC(=O)c2c(O)nc3c(C)cccn3c2=O)c1,inactive: 0.298%
15,Cc1nc2ccn(Cc3ccccc3)c(=O)c2cc1C(=O)N1CCN(c2ccc(F)cc2)CC1,inactive: 0.512%
16,CCc1ccc(NC(=O)CC2C(=O)N(c3cccc(OC)c3)C(=O)N2Cc2ccc(F)cc2)cc1 (stereo not drawn),inactive: -3.55%
17,CCOC(=O)c1cnc2cc(-c3ccc(OCC)cc3)nn2c1-c1ccccc1,inactive: -5.53%
18,COCCc1nn2c(=O)cc(COC(=O)C(c3ccccc3)c3ccccc3)nc2s1,inactive: -8.54%
19,Cc1cc(NC(=O)n2ncc3c(C)cccc32)ccc1Br,inactive: 3.57%
20,CCc1ccc(NC(=O)CC2C(=O)N(c3cccc(C)c3)C(=O)N2Cc2ccc(F)cc2)cc1 (stereo not drawn),inactive: -8.58%
21,COc1ccc(NC(=O)CSc2nccn2Cc2ccc3c(c2)OCO3)cc1,inactive: -1.03%
22,COc1ccc(C)cc1NC(=O)C(=O)NCC(c1cccnc1)N1CCc2ccccc21 (stereo not drawn),inactive: 12.6%
23,Cc1ccc(-n2c3c(cc(C(=O)Nc4ccccc4C(N)=O)c2=O)C(=O)CC(C)(C)C3)cc1,inactive: 1.58%
